{"source": "the supplement of paper PMC3334620", "note": "Over roughly 33,000 sequences, “E-score (-0.5 to 0.5)” has its median near -0.04; the highest 2% begin near 0.36. This is one part of the list."}
{"target": "T1, Hmlalpha2 (UniProt P0CY09)", "T1 sequence": "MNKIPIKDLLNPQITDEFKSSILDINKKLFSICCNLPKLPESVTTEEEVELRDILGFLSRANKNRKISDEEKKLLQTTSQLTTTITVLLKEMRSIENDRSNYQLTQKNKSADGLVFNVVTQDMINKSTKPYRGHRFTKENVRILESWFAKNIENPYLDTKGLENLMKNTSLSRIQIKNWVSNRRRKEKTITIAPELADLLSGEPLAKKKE", "assay": "PBM E-score (8-mer binding enrichment) (E-score (-0.5 to 0.5)); higher = stronger / more preferred TF binding; most listed sequences are background and not binding sites", "settings": "protein concentration: 200 nM; construct: GST-full length", "summary_of_the_method": "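Using PURExpress in vitro transcription/translation, GST-tagged yeast transcription factors were made in full-length or DNA-binding-domain form. These were applied at about 100-200 nM to double-stranded universal all-10-mer Agilent arrays, and bound protein was detected with fluorescent anti-GST. Scans were normalised with masliner before the Universal PBM Analysis Suite assigned E-scores to ungapped eight-base words pooled with their reverse complements.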"}
{"sequence": "ATCTTTCG", "PBM E-score": -0.143}
{"sequence": "GATAGTAC", "PBM E-score": 0.101}
{"sequence": "CTGCCGAC", "PBM E-score": -0.232}
{"sequence": "AAATCAGA", "PBM E-score": 0.0685}
{"sequence": "ACATAAAA", "PBM E-score": 0.228}
{"sequence": "CCCCGGAA", "PBM E-score": -0.168}
{"sequence": "CAACCTGG", "PBM E-score": -0.0248}
{"sequence": "ACGTCGAT", "PBM E-score": 0.207}
{"sequence": "ACTAACTC", "PBM E-score": 0.0701}
{"sequence": "ATTCTCCA", "PBM E-score": -0.0753}
{"sequence": "AGACGGGA", "PBM E-score": -0.184}
{"sequence": "ACTTGTCT", "PBM E-score": 0.117}
{"sequence": "CCACGCCC", "PBM E-score": -0.323}
{"sequence": "CCCCCACA", "PBM E-score": -0.289}
{"sequence": "ACAGACAT", "PBM E-score": 0.182}
{"sequence": "ACGTTTGC", "PBM E-score": 0.046}
{"sequence": "GTCTTTCA", "PBM E-score": -0.169}
{"sequence": "ACCAATCA", "PBM E-score": -0.0195}
{"sequence": "AGGGCCCG", "PBM E-score": -0.267}
{"sequence": "TACCATGA", "PBM E-score": -0.122}
{"sequence": "CTGATAAG", "PBM E-score": 0.00466}
{"sequence": "ACACTTTA", "PBM E-score": 0.22}
{"sequence": "CCGTCATA", "PBM E-score": -0.135}
{"sequence": "CAATTAGC", "PBM E-score": -0.0608}
{"sequence": "AAGCGGAC", "PBM E-score": -0.209}
{"sequence": "GACCGCGC", "PBM E-score": -0.197}
{"sequence": "ATCGGGAG", "PBM E-score": -0.238}
{"sequence": "AACCGCTT", "PBM E-score": -0.0491}
{"sequence": "ATTCGCTG", "PBM E-score": -0.051}
{"sequence": "CGAGAAAC", "PBM E-score": -0.0161}
{"sequence": "GCGAAGTA", "PBM E-score": 0.0525}
{"sequence": "ACCGGGGC", "PBM E-score": -0.283}
{"sequence": "CACGGTGG", "PBM E-score": 0.0263}
{"sequence": "CTTCACAA", "PBM E-score": 0.0306}
{"sequence": "ATCGACAC", "PBM E-score": 0.212}
{"sequence": "ACGGTGAC", "PBM E-score": -0.0477}
{"sequence": "CCACGCTC", "PBM E-score": -0.335}
{"sequence": "ACAATGAG", "PBM E-score": -0.062}
{"sequence": "GCTGGTCA", "PBM E-score": -0.185}
{"sequence": "ATATGCAG", "PBM E-score": -0.177}
{"sequence": "CCTCAAAG", "PBM E-score": -0.142}
{"sequence": "AGGGTCGA", "PBM E-score": -0.187}
{"sequence": "AGCAGTGA", "PBM E-score": 0.0703}
{"sequence": "CCGTTTAG", "PBM E-score": -0.0825}
{"sequence": "AACTGTCT", "PBM E-score": -0.0823}
{"sequence": "ATGGTGGA", "PBM E-score": -0.173}
{"sequence": "ACCTCAGT", "PBM E-score": -0.0509}
{"sequence": "AGTGAGTC", "PBM E-score": -0.148}
{"sequence": "AAGCGTTA", "PBM E-score": -0.0682}
{"sequence": "ATTTAGAG", "PBM E-score": 0.0168}
{"sequence": "GCCCTTCC", "PBM E-score": -0.276}
{"sequence": "CAATTTGC", "PBM E-score": -0.138}
{"sequence": "GACGCCAC", "PBM E-score": -0.189}
{"sequence": "ATCGGACC", "PBM E-score": -0.227}
{"sequence": "CCCCCAAC", "PBM E-score": -0.224}
{"sequence": "GTAGCAGA", "PBM E-score": 0.0249}
{"sequence": "ACCCCGCG", "PBM E-score": -0.131}
{"sequence": "TAGAACCA", "PBM E-score": 0.0563}
{"sequence": "AAGGAAGC", "PBM E-score": -0.375}
{"sequence": "GCAAGATA", "PBM E-score": 0.00488}
{"sequence": "CCTGTGGA", "PBM E-score": -0.332}
{"sequence": "GTGCTGGA", "PBM E-score": -0.0877}
{"sequence": "GTAATAAC", "PBM E-score": 0.392}
{"sequence": "GAGGTTTA", "PBM E-score": -0.016}
{"sequence": "AGAGGTGC", "PBM E-score": -0.212}
{"sequence": "CTAGATGA", "PBM E-score": -0.172}
{"sequence": "CAGGCACA", "PBM E-score": -0.166}
{"sequence": "GCGACCGC", "PBM E-score": -0.229}
{"sequence": "ACGCTAAC", "PBM E-score": 0.127}
{"sequence": "ATGCCGGC", "PBM E-score": 0.0142}
{"sequence": "ACCTTCCA", "PBM E-score": -0.0872}
{"sequence": "AGGGCTTA", "PBM E-score": -0.188}
{"sequence": "ACGACCTA", "PBM E-score": -0.0288}
{"sequence": "AATTCGCT", "PBM E-score": 0.122}
{"sequence": "ATGCAGTG", "PBM E-score": 0.12}
{"sequence": "AGCGTGAG", "PBM E-score": -0.18}
{"sequence": "AATGTGGT", "PBM E-score": 0.163}
{"sequence": "CGGACTCA", "PBM E-score": -0.159}
{"sequence": "AATAACCC", "PBM E-score": -0.0911}
{"sequence": "TAACAAGA", "PBM E-score": 0.377}
{"sequence": "AAATACAG", "PBM E-score": 0.172}
{"sequence": "GGACTCCC", "PBM E-score": -0.212}
{"sequence": "GATATGAC", "PBM E-score": -0.00016}
{"sequence": "AGACCTAA", "PBM E-score": -0.153}
{"sequence": "CAATCCCC", "PBM E-score": -0.072}
{"sequence": "TAATACGA", "PBM E-score": 0.265}
{"sequence": "TCTAGAAA", "PBM E-score": 0.0279}
{"sequence": "AGCGCTAA", "PBM E-score": 0.0618}
{"sequence": "CTCTATAC", "PBM E-score": -0.00073}
{"sequence": "ATTAGTGG", "PBM E-score": 0.0919}
{"sequence": "AAGTTAAG", "PBM E-score": 0.0528}
{"sequence": "ACCGTTTA", "PBM E-score": 0.0365}
{"sequence": "CATTAGGC", "PBM E-score": -0.103}
{"sequence": "CATACGAC", "PBM E-score": 0.0792}
{"sequence": "CTCCAACA", "PBM E-score": 0.224}
{"sequence": "ATACTCAA", "PBM E-score": 0.151}
{"sequence": "AGTTCAAC", "PBM E-score": 0.219}
{"sequence": "CATGCCGA", "PBM E-score": 0.0781}
{"sequence": "AGTCTACA", "PBM E-score": 0.169}
{"sequence": "AGGGGGCG", "PBM E-score": -0.3}
{"sequence": "CAACTGTG", "PBM E-score": 0.152}
{"sequence": "ATAGAATG", "PBM E-score": 0.0643}
{"sequence": "CGCGAGCA", "PBM E-score": -0.252}
{"sequence": "CCCTAAAC", "PBM E-score": -0.0769}
{"sequence": "TGCTCGAA", "PBM E-score": -0.0384}
{"sequence": "GTTTCTGA", "PBM E-score": -0.0402}
{"sequence": "AGACTAAC", "PBM E-score": -0.102}
{"sequence": "ACCGTAAC", "PBM E-score": -0.163}
{"sequence": "AACCAGAT", "PBM E-score": -0.0675}
{"sequence": "CGGGTCTC", "PBM E-score": -0.112}
{"sequence": "GGGAGTTA", "PBM E-score": -0.0673}
{"sequence": "CGGACCAA", "PBM E-score": 0.0624}
{"sequence": "CTAAACGC", "PBM E-score": 0.0917}
{"sequence": "TACCACCA", "PBM E-score": -0.177}
{"sequence": "ATTTCTGA", "PBM E-score": -0.0365}
{"sequence": "GCATGGGC", "PBM E-score": -0.183}
{"sequence": "AAGCCCCC", "PBM E-score": -0.343}
{"sequence": "GGGGCAAC", "PBM E-score": -0.213}
{"sequence": "AGTTTTCG", "PBM E-score": 0.041}
{"sequence": "ATACTTAG", "PBM E-score": 0.0132}
{"sequence": "GGCCTGCA", "PBM E-score": -0.339}
{"sequence": "CCCTCATA", "PBM E-score": -0.228}
{"sequence": "ACCTATAC", "PBM E-score": 0.164}
{"sequence": "ATTGTAAA", "PBM E-score": 0.374}
{"sequence": "ATTCAACG", "PBM E-score": 0.196}
{"sequence": "ATGGACTC", "PBM E-score": -0.146}
{"sequence": "TATAGATA", "PBM E-score": -0.0163}
{"sequence": "CTGGGTCA", "PBM E-score": -0.137}
{"sequence": "AGTGGTGG", "PBM E-score": -0.204}
{"sequence": "GGCGGCAC", "PBM E-score": -0.325}
{"sequence": "CCCTGTTA", "PBM E-score": 0.188}
{"sequence": "GAGCTGTA", "PBM E-score": -0.138}
{"sequence": "CATGTGCG", "PBM E-score": 0.12}
{"sequence": "AAATAAAT", "PBM E-score": 0.205}
{"sequence": "AGGGGCTA", "PBM E-score": -0.148}
{"sequence": "TCACGCAA", "PBM E-score": 0.243}
{"sequence": "CGTCACTC", "PBM E-score": -0.174}
{"sequence": "CGTGCCAA", "PBM E-score": -0.066}
{"sequence": "GTCTGCCA", "PBM E-score": -0.221}
{"sequence": "AATCTGCC", "PBM E-score": -0.0678}
{"sequence": "AAATTAAA", "PBM E-score": 0.224}
{"sequence": "ACTGGCCA", "PBM E-score": -0.137}
{"sequence": "GTCTCCGA", "PBM E-score": -0.14}
{"sequence": "ACGAAACA", "PBM E-score": 0.113}
{"sequence": "GCATCAGA", "PBM E-score": 0.174}
{"sequence": "AACGTCTT", "PBM E-score": 0.0322}
{"sequence": "GTACCCTA", "PBM E-score": -0.0877}
{"sequence": "TATGTGCA", "PBM E-score": 0.103}
{"sequence": "CGCTGACG", "PBM E-score": -0.21}
{"sequence": "TATAAACA", "PBM E-score": 0.358}
{"sequence": "ACACCTGT", "PBM E-score": 0.0454}
{"sequence": "GCCGCTCC", "PBM E-score": -0.265}
{"sequence": "CAGTTTGA", "PBM E-score": -0.0778}
{"sequence": "AAGGCGCT", "PBM E-score": -0.105}
{"sequence": "CGCTGCAA", "PBM E-score": 0.106}
{"sequence": "AATTCTCT", "PBM E-score": -0.191}
{"sequence": "GTCACAAA", "PBM E-score": 0.143}
{"sequence": "CCCCGGAG", "PBM E-score": -0.315}
{"sequence": "GATAATTA", "PBM E-score": 0.21}
{"sequence": "CACTGACG", "PBM E-score": -0.0973}
{"sequence": "CGCTCAAA", "PBM E-score": -0.0575}
{"sequence": "CCGTTCTC", "PBM E-score": -0.21}
{"sequence": "CGCAGCCG", "PBM E-score": -0.189}
{"sequence": "AGAGGGTA", "PBM E-score": -0.0823}
{"sequence": "AACTGCTG", "PBM E-score": -0.13}
{"sequence": "AAATAGGA", "PBM E-score": 0.0479}
{"sequence": "AGTGTACG", "PBM E-score": 0.175}
{"sequence": "AGCTACCG", "PBM E-score": -0.257}
{"sequence": "ATCCAATA", "PBM E-score": 0.0909}
{"sequence": "CGTTAGCC", "PBM E-score": 0.00572}
{"sequence": "TAAGCGGA", "PBM E-score": -0.131}
{"sequence": "ACGCCACT", "PBM E-score": 0.0131}
